Assay results published in article PMC6042961.
No constants are given. Whether binding was seen depends on the method and setting. Binding seen in cells or lysates may run through a third protein. Where a sequence is shown, tags or fusion partners need not be part of it.

Tests used:
[1] = target: T1, mouse iRhom2^cub-3xHA (mouse) (UniProt Q80WQ6); assay: co-IP; lysates in 1% Triton X-100, 150 mM NaCl, 50 mM Tris-HCl pH 7.5; anti-HA or anti-V5 magnetic beads 1 hr at 4°C; wash with 300 mM NaCl; western blot; HEK293T cells (wild type, ADAM17 KO, FRMD8 KO, or iRhom1/2 DKO reconstituted with iRhom2^WT-3xHA; with or without 200 nM PMA for 30 min)
T1 sequence: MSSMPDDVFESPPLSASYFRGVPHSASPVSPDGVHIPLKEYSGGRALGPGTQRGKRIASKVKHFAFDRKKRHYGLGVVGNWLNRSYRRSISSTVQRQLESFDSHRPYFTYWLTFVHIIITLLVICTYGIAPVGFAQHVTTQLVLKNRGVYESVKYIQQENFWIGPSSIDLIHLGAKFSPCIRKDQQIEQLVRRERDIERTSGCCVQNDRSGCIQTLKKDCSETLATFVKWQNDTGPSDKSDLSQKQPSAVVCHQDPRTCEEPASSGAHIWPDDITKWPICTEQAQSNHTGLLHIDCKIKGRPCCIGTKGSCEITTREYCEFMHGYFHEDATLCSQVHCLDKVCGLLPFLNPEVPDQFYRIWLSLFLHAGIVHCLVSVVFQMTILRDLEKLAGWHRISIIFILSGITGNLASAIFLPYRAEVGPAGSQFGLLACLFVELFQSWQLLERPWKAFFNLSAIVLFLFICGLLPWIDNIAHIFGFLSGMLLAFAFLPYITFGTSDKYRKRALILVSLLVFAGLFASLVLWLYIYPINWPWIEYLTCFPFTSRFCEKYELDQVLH

[2] = target: T2, human iRhom2^Δ300-3xHA (human) (UniProt Q6PJF5); assay: as above
T2 sequence: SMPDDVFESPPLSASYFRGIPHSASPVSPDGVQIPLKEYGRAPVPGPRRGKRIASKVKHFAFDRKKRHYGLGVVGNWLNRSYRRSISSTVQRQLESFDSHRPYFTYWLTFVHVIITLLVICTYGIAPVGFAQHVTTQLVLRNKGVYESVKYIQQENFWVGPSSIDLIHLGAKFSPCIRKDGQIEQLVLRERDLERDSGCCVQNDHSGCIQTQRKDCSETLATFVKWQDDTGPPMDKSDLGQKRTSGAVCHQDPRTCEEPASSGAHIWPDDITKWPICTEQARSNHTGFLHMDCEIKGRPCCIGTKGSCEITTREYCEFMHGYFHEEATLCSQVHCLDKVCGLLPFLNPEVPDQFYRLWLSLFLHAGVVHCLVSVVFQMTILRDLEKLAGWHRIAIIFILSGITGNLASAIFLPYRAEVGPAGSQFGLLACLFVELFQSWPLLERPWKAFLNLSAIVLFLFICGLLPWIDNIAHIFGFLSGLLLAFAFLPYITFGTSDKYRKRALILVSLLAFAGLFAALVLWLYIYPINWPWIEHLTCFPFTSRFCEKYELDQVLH

binding [1]: no binding | binding [2]: no binding
B1: human FRMD8-V5 (protein, UniProt Q9BZ67-1 1-464)
chain: MDGTEGSAGQPGPAERSHRSSVSSVGARAADVLVYLADDTVVPLAVENLPSLSAHELHRAVREVLQLPDIALDVFALWLVSPLLEVQLKPKHQPYKLGRQWPELLLRFTSAPDDDVAMDEPFLQFRRNVFFPKRRELQIHDEEVLRLLYEEAKGNVLAARYPCDVEDCEALGALVCRVQLGPYQPGRPAACDLREKLDSFLPAHLCKRGQSLFAALRGRGARAGPGEQGLLNAYRQVQEVSSDGGCEAALGTHYRAYLLKCHELPFYGCAFFHGEVDKPAQGFLHRGGRKPVSVAISLEGVHVIDSREKHVLLGLRFQELSWDHTSPEEEEPILWLEFDGDSEGTPVNKLLKIYSKQAELMSSLIEYCIELSQAAEPAGPQDSATGSPSDPSSSLAPVQRPKLRRQGSVVSSRIQHLSTIDYVEDGKGIRRVKPKRTTSFFSRQLSLGQGSYTVVQPGDSLEQG
